In PubChem BioAssay AID463173 (ICCB-Longwood Screening Facility, Harvard Medical School, 2010):
Hit rate of the full screen: of about 52,000 compounds, about 4,300 (8.3%) were called active. No stated cut-off is given here; in the data, active means survival mostly below about 52% (no sharp cut-off); inactive means mostly above about 56%. Some of the results follow.

What follows are compounds tested on DeltatarO mutant (assay: S. aureus survival, RN4220 and DeltatarO strains – OD600, teichoic acid synthesis inhibitors, primary screen (AID 463173)). Conditions: S. aureus RN4220 wild type/DeltatarO growth, OD600, 18 h, active compounds read low, screened at 18.75 µg/mL (by protocol).

Structure (SMILES)	survival
O=C(O)C1Cc2c([nH]c3ccccc23)C(Cc2ccccc2)N1 (stereo not drawn)	inactive: 70%
CCC(=O)N1CCc2cc(S(=O)(=O)CCC(=O)NCc3ccc(C)cc3)ccc21	inactive: 92%
COc1ccccc1-c1nc2c(c(SCC(=O)Nc3c(C)cc(C)cc3C)n1)Cc1c(CO)cnc(C)c1O2	inactive: 87%
CCCN1C2CCCC1CC(NC(=O)c1ccc(F)cc1)C2 (stereo not drawn)	inactive: 98%
CCc1cccc(NC(=O)C(Cc2ccccc2)NS(=O)(=O)c2ccc3c(c2)oc(=O)n3C)c1 (stereo not drawn)	inactive: 101%
CCOC(=O)c1c(NC(=O)c2cc3nc(-c4ccc(OC)cc4)cc(C(F)(F)F)n3n2)sc2c1CCC(C)C2 (stereo not drawn)	inactive: 95%
COC(=O)/C=C1/N/C(=N/c2nc3ccccc3s2)NC1=O	inactive: 90%
Cc1cccc(Cn2c(=O)n(CC3CCC(C(=O)N4CCOCC4)CC3)c(=O)c3sccc32)c1 (stereo not drawn)	inactive: 69%
Cc1c(Cl)cccc1NC1=NCC(=O)N1C1CCCC1	inactive: 100%
Cc1cc2oc(C(=O)N(Cc3ccccc3F)C3CCS(=O)(=O)C3)c(C)c2cc1Cl (stereo not drawn)	inactive: 55%
Cc1ccc(C)c(N2CCN(C(=O)Cn3ncc4ccsc4c3=O)CC2)c1	inactive: 73%
CCOC(=O)c1ccc(NC(=O)c2c(N3CCCC3=O)c3cc(OC)ccc3n2C)cc1	inactive: 74%
OCC1=CC[N+]2(Cc3ccccc3)CCC(O)C12 (stereo not drawn)	inactive: 84%
Cc1ccc(C2CC(=O)Nc3cc4c(cc32)OCCO4)cc1 (stereo not drawn)	inactive: 120%
CC1=C(C(=O)OCC2CCCCC2)C(c2cccc(Cl)c2Cl)CC(=O)N1 (stereo not drawn)	inactive: 86%
CCc1ccc(Cn2c(CNS(=O)(=O)c3ccc(F)c(Cl)c3)nc3cccnc32)cc1	active: 20%
CC(=O)N1CCCC1c1nc2ccccc2n1Cc1ccccc1 (stereo not drawn)	inactive: 68%
CCOc1ccc(CCNC(=O)c2ccc(Nc3nc4ccccc4n4nnnc34)cc2)cc1OCC	inactive: 113%
Cc1ccc(N2C(=O)N(CC(=O)C(C)(C)C)c3ccccc3S2(=O)=O)cc1C	inactive: 91%
CCc1cccc(NC(=O)c2cc3c(=O)n(Cc4ccc(OC)cc4)ccc3nc2C)c1	inactive: 102%

Structure (SMILES)	survival
CCCSc1nnc2c(n1)OC(c1sccc1C)Nc1ccccc1-2 (stereo not drawn)	inactive: 79%
CCOc1ccc(-c2cc(C(=O)N3CCN(S(=O)(=O)c4cc(Cl)ccc4OC)CC3)[nH]n2)cc1	inactive: 73%
CCN1/C(=C2\C(=O)N(c3ccc(Cl)cc3)N=C2C)C=Cc2ccccc21	inactive: 68%
CS(=O)(=O)n1c(=O)sc2ccccc21	inactive: 99%
COc1ccc(S(=O)(=O)c2c(C)c(NS(=O)(=O)c3ccccc3)cc(C)c2O)cc1	inactive: 67%
O=C(CSc1nc2c(c(=O)[nH]1)CCC2)Nc1ccccc1C(F)(F)F	inactive: 72%
Cc1ccccc1Nc1c(-c2ccc(Cl)s2)nc2cccc(C)n12	inactive: 99%
O=C(c1ccc2c(c1)CCCC2)N1CCN(c2nc3c(F)cccc3s2)CC1	inactive: 81%
COc1cc(C(c2c(C)[nH][nH]c2=O)c2c(C)[nH][nH]c2=O)ccc1OC(=O)c1cccc(C)c1	inactive: 75%
CCOC(=O)C1CCCCN1S(=O)(=O)c1csc(C(N)=O)c1 (stereo not drawn)	inactive: 121%
CCCC(CCC)C(=O)Nc1cc(-c2cn3cccnc3n2)ccc1OC	inactive: 71%
O=c1c(-c2ccc(Cl)cc2)c(C(F)(F)F)oc2c(CN3CCCCC3)c(O)ccc12	inactive: 134%
O=C(O)CN1C(=O)CC(Cc2ccccc2)C1=O (stereo not drawn)	inactive: 100%
CCc1ccc(N2C(=O)CSC23C(=O)N(Cc2ccc(C)cc2)c2ccccc23)cc1 (stereo not drawn)	inactive: 69%
CCc1cccc(NC(=O)C2CCCN(S(=O)(=O)c3cccs3)C2)c1 (stereo not drawn)	inactive: 80%
CC(C)(C)c1ccc(OCCn2cc(C(=O)c3ccco3)c3ccccc32)cc1	active: 35%
COc1ccccc1N1CCN(C(CNC(=O)C(=O)NCc2ccc(C)cc2)c2cccnc2)CC1 (stereo not drawn)	inactive: 65%
Cc1ccc(C2=CC(c3ccccc3F)n3c(nc4ccccc43)N2)cc1C (stereo not drawn)	inactive: 70%
CN(C)c1ccc(-n2c(CCC(=O)O)ccc2-c2ccccc2)cc1	inactive: 60%
CCC1CN(Cc2ccccc2)CCC1=O (stereo not drawn)	inactive: 84%

Structure (SMILES)	survival
CCOC(=O)C1CCN(C(c2cccnc2)c2nnnn2Cc2ccccc2)CC1 (stereo not drawn)	inactive: 96%
CCOC(=O)CN1N=NC2C(=O)N(c3ccccc3)C(=O)C21 (stereo not drawn)	inactive: 92%
COc1ccc(C2=NC(c3ccncc3)=Nc3ccc(Br)cc3N2)cc1	inactive: 82%
COc1ccc(-n2c(=O)c3c4c(sc3n(Cc3ccccc3Cl)c2=O)CCC4)c(OC)c1	inactive: 52%
COCc1[nH]nc2c1C(c1ccc(F)c(F)c1)C(C#N)=C(N)O2 (stereo not drawn)	inactive: 74%
OCCNc1nc2nonc2nc1NCCO	inactive: 82%
Cc1cccc(OCC(=O)Nc2ccccc2OCc2cc(=O)n3ccccc3n2)c1	inactive: 85%
Cc1cccc(-c2nc3c(c(SCc4ccccc4Cl)n2)Cc2c(CO)cnc(C)c2O3)c1	inactive: 68%
CCOc1ccccc1NC(=O)c1c(NC(=O)C(C)Oc2ccc(Cl)cc2)sc2c1CCCCC2 (stereo not drawn)	inactive: 83%
Cc1ccc(NS(=O)(=O)c2ccc3c(c2)CC(C)N3C(=O)C2CCC2)cc1Cl (stereo not drawn)	inactive: 77%
CNC(=O)CN1C(=O)c2cccnc2Sc2ccccc21	inactive: 109%
CC(C)CC1N=C2c3ccccc3N=C(SCC(=O)NCCc3ccc(Cl)cc3)N2C1=O (stereo not drawn)	inactive: 95%
CCNC(=O)c1cnc2c(-c3ccccc3)c(C)nn2c1C	active: 8%
CC(C)CCn1c(=O)c2sccc2n2c(CCCC(=O)NC(C)C)nnc12	inactive: 96%
COc1ccc(-c2nc3cc(C)ccn3c2NC(=O)c2ccc(C)c(C)c2)cc1	inactive: 68%
Cc1ccc2c(c1)-c1nc(-c3ccc4c(c3)NC(=O)CO4)cc(-c3ccc(F)cc3)c1CO2	inactive: 100%
COc1ccccc1C(=O)Nc1c(C(=O)N(C)Cc2ccccc2)sc2nc(C)c(Cl)c(C)c12	inactive: 71%
Cc1nc2c(C(=O)NCCc3ccc(Cl)cc3)c[nH]n2c(=O)c1Cc1ccc(Cl)cc1	active: -14%
